Experimental data reported in PubChem BioAssay AID720647 (Broad Institute, 2013).
Among all 380,000 compounds or so, about 1,300 (0.34%) were called active. Inconclusive means that the source gave no clear call. Such entries were picked first, then a sample of the others.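 The calls were made as follows: active = drop in luminescence signal, shown as inhibition above about 50% in the replicate tests (limit read from the data, passing the limit was not always enough); inconclusive = probably only some replicates passing the limit; inactive = the rest.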

Tested on: Drosophila bursicon receptor LGR2 (rickets)
Experiment: inhibitors of bursicon-induced LGR2 CRE-luciferase signal, primary screen, cell-based, HEK293, CRE-luciferase reporter, bursicon stimulation (AID 720647);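 also: agonist challenge used bursicon conditioned medium at about half maximal strength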
Conditions: bursicon-stimulated, 4 h, at 9.99 µM, active compounds read high

Row | SMILES | inhibition
1 | CCOC(=O)N1CCN(C(=O)CSCC(=O)Nc2nc(-c3ccc(-c4ccccc4)cc3)cs2)CC1 | active: 51.4%
2 | CCN(CC)C(=O)C1=C(C)N(CCCN2CCCC2=O)C(=O)C(CC(=O)NC2CCCC2)C1 (stereo not drawn) | inconclusive: -13.8%
3 | C[C@@H]1CN([C@@H](C)CO)C(=O)c2cc(NC(=O)Nc3ccc(C(F)(F)F)cc3)ccc2O[C@@H](C)CCCCO[C@@H]1CN(C)Cc1ccncc1 | inactive: 40.3%
4 | Cc1cc(=O)oc2cc(OCC(=O)Nc3nccs3)ccc12 | inactive: -38.9%
5 | COc1ccc(-c2cc(C(F)(F)F)nc(S(=O)(=O)CCCC(=O)Nc3cccc(O)c3)n2)cc1OC | inconclusive: 32%
6 | COc1cc(CNCCO)cc(Cl)c1OCc1ccc(Cl)cc1Cl | inconclusive: 23.1%
7 | C(=N\n1cnnc1)/c1cn(Cc2ccccc2)c2ccccc12 | inactive: -16.4%
8 | C[C@@H]1CN([C@H](C)CO)C(=O)c2cccc(NC(=O)Nc3ccc(C(F)(F)F)cc3)c2O[C@@H]1CN(C)C(=O)Nc1cccc2ccccc12 | inconclusive: -6.39%
9 | CC(=O)Nc1ccc(C=NNc2nnc(NN=Cc3ccc(NC(C)=O)cc3)c3ccccc23)cc1 | inconclusive: 75.9%
10 | O=C(c1cccnc1)N1CC(=O)N2[C@H](C1)[C@@H](c1ccc(/C=C/c3ccccc3)cc1)[C@@H]2CO | inactive: 8.67%
11 | O=C1C=CC(O)(c2cc(=O)c3c(O)cc(O)cc3o2)C=C1 | active: 89.3%
12 | CCCC(=O)C1=C(N2CCCCC2)CC(C)(C)C(C(=O)OC)C1=O (stereo not drawn) | inconclusive: 51.1%
13 | Cc1cccc(C)c1NC(=O)CN1C(=O)S/C(=C\c2cccn2-c2cccc(C(=O)O)c2)C1=O | inactive: 15.7%
14 | COc1ccc2cc(-c3cc(C(=O)OCC(=O)Nc4c(C)n(C)n(-c5ccccc5)c4=O)c4ccccc4n3)ccc2c1 | inconclusive: 49.3%
15 | C[C@H]1CN([C@@H](C)CO)C(=O)c2cc(C#CC3CC3)cnc2O[C@H]1CN(C)C(=O)Nc1ccccc1 | inactive: -12.4%
16 | O=C(Nc1ccc2c(c1)OCO2)N[C@H]1CC[C@H](CC(=O)N2CCN(c3ccccc3)CC2)O[C@H]1CO | inactive: 4.89%
17 | CC(C)(C)c1nc2ccc(Cl)cn2c1CC1CCCCC1 | inconclusive: 6.33%
18 | Cc1cccc(-c2nsc(SCC(=O)NCC3CCCO3)n2)c1 (stereo not drawn) | inactive: -22.3%
19 | O=S(=O)(CCc1ccncc1)Cc1ccc2c3c(cccc13)CC2 | inconclusive: 50.9%
20 | COc1ccc2sc(-c3ccc(S(C)(=O)=O)cc3)c(C#CCO)c2c1 | active: 56.6%
21 | COc1ccc(CC(N)c2csc(NC(=O)c3ccccc3OC)n2)cc1 (stereo not drawn) | inactive: -2.91%
22 | Cc1ccc(OCc2nnc(SCC(=O)Nc3ccc(N4CCOCC4)cc3)o2)cc1 | inconclusive: 13.4%
23 | Cc1ccc(S(=O)(=O)N(C)C[C@@H]2Oc3cc(-c4cccc(F)c4)ccc3S(=O)(=O)N([C@H](C)CO)C[C@H]2C)cc1 | inactive: 12.4%
24 | COc1ccc(C(=O)COC(=O)c2ccco2)cc1 | inconclusive: 38.1%
25 | O=[N+]([O-])c1ccc(/C=C/c2ccc3ccccc3n2)cc1 | active: 54.4%
26 | CC(C)Oc1ccc(CNC(=O)CC(c2ccccc2)c2cc(Cl)ccc2O)cc1 (stereo not drawn) | inconclusive: 25.8%

Row | SMILES | inhibition
27 | Cc1ccc2nc(C)cc(Nc3ccc([N+](=O)[O-])cc3)c2c1 | inconclusive: 56.2%
28 | COc1cccc(C#Cc2ccc([C@@H]3[C@@H](CO)N(C(=O)C4CCC4)[C@H]3C#N)cc2)c1 | active: 99.9%
29 | NC(c1ccccc1)c1csc(NC(=O)Nc2cccc(Cl)c2)n1 (stereo not drawn) | inconclusive: 56.5%
30 | CN(C)c1ccc(-c2nc3ccccc3c(=O)[nH]2)cc1 | active: 66.1%
31 | O=S(=O)(Nc1c(S(=O)(=O)c2ccccc2)c2nc3ccccc3nc2n1C1CCCCC1)c1ccccc1 | inconclusive: 50.5%
32 | O=C(Nc1cc2ccccc2oc1=O)c1ccccc1 | active: 88.9%
33 | CC(C)n1c(=O)c2ccccc2n1Cc1cn(Cc2cccs2)nn1 | inconclusive: 9.52%
34 | CCn1cc(C(=O)NCCCO)c(=O)c2cc(F)c(N3CCN(C)CC3)cc21 | inactive: -4.83%
35 | Cc1ccccc1OCCCN1CCC(C(O)(c2ccccc2)c2ccccc2)CC1 | inconclusive: 47.3%
36 | COc1ccc(NC(=O)C[C@H]2C(=O)N(c3ccc(Br)cc3)C[C@@H]2C)cc1 | inconclusive: 52.9%
37 | Cc1ccc([C@H]2C[C@H](O)[C@@H](n3cc(-c4ccc(F)cc4)nn3)CN2Cc2cccs2)cc1 | inactive: 8.41%
38 | CCCSc1ccc2nc(-c3ccccc3)cn2c1 | inconclusive: 90.2%
39 | O=C(c1ccccc1)c1ccc(Cn2cc(-c3ccccc3)nn2)cc1 | inactive: -40.4%
40 | CC(=O)OC(C)(C)/C=C/C(=O)[C@](C)(O)C1[C@H](O)C[C@@]2(C)C3CC=C4C(C=C(O[C@@H]5O[C@H](CO)[C@@H](O)[C@H](O)[C@H]5O)C(=O)C4(C)C)[C@]3(C)C(=O)C[C@]12C (stereo partly drawn) | inconclusive: 42.6%
41 | CO[C@@H]1CN(C)C(=O)c2ccc(NC(=O)C3CC3)cc2OC[C@H](C)N(C(=O)c2ccccn2)C[C@H]1C | inactive: 2.91%
42 | C[C@H]1CN([C@@H](C)CO)S(=O)(=O)c2ccc(C#CC3CC3)cc2O[C@@H]1CN(C)Cc1cncnc1 | inactive: -8.88%
43 | N#C/C(=C\c1ccccn1)c1nc2ccccc2s1 | inactive: -100%
44 | Cc1ccc(NC(=O)/C(C#N)=C/c2cc(C)n(-c3ccc(N4CCOCC4)c([N+](=O)[O-])c3)c2C)c(C)c1 | inactive: 6.05%
45 | O=C(Nc1ccc2c(c1)OCCO2)C(=O)c1c[nH]c2ccccc12 | inconclusive: 18.2%
46 | CCCCn1c(=N)n(CC(=O)c2ccc(OC)cc2)c2ccccc21 | inconclusive: 42.3%
47 | O=C(COC(=O)CCc1nc2ccccc2n1-c1ccccc1)Nc1cccc(Cl)c1 | inactive: -0.658%
48 | Cc1cc(C)c(C#N)c(Sc2nc(C)c([N+](=O)[O-])c(C)c2C#N)n1 | inconclusive: 46.5%
49 | Cc1ccccc1OCC(O)Cn1c(=N)n(Cc2ccccc2)c2ccccc21 (stereo not drawn) | inconclusive: 55%
50 | Cc1ccc(S(=O)(=O)NC(CC(C)C)C(=O)Oc2ccc3c4c(c(=O)oc3c2)CCC4)cc1 (stereo not drawn) | inactive: 21.5%
51 | O=C(Nc1ccc(-c2nc3ccccc3[nH]2)cc1)C1CCCO1 (stereo not drawn) | inconclusive: 62.6%
52 | CC(=O)N1CCC(=NNC(=O)c2cc3ccccc3cc2O)CC1 | inactive: 8.7%

Row | SMILES | inhibition
53 | C[C@H]1CN([C@@H](C)CO)C(=O)c2cccc(NC(=O)NC3CCCCC3)c2O[C@@H]1CN(C)Cc1ccc(C(F)(F)F)cc1 | inconclusive: 53.1%
54 | Cc1ccc(C(=O)Nc2ccc3ncccc3c2)cc1 | active: 74.1%
55 | CCc1cnc(N2[C@H](CO)[C@H](c3ccc(C#CCC4CCCC4)cc3)[C@@H]2C#N)s1 | inactive: -15.9%
56 | COc1ccc2c3c([nH]c2c1)[C@H](CO)N(C(=O)c1ccncc1)CC31CCN(C(=O)CC2CC2)CC1 | inactive: -11%
57 | COc1cccc(N2CCN(C(=O)CCCCCNc3nc(=S)[nH]c4ccccc34)CC2)c1 | inconclusive: 52.5%
58 | Cc1cccc(N2CCN(C(=O)C3CCN(c4ncnc5c4nc4n5CCCCC4)CC3)CC2)c1C | inconclusive: 69.2%
59 | Cc1ccc(S(=O)(=O)N[C@@H]2CC[C@@H](CCNC(=O)CN3CCOCC3)O[C@H]2CO)cc1 | inactive: -2.93%
60 | C[C@H](CO)N1C[C@H](C)[C@H](CN(C)C(=O)Nc2ccccc2)OCCCC[C@H](C)Oc2ccc(NC(=O)CCC(F)(F)F)cc2C1=O | inconclusive: 62.7%
61 | Oc1cc(O)cc(C=Cc2ccc(O)c(O)c2)c1 | inconclusive: 33.7%
62 | Cc1ccc(S(=O)(=O)N(C)C[C@@H]2OCCCC[C@H](C)Oc3ccc(NC(=O)Nc4ccc(F)cc4)cc3C(=O)N([C@@H](C)CO)C[C@H]2C)cc1 | inactive: 10.3%
63 | CCCCSc1nc(C)cc(SCC(=O)N/N=C/c2cccc(OC)c2O)n1 | inconclusive: 26%
64 | Cc1ccc(O)c(N=Nc2ccccc2)n1 | inconclusive: 48.7%
65 | CC1C/C(=C/c2ccncc2)C(=O)/C(=C/c2ccncc2)C1 (stereo not drawn) | active: 103%
66 | O=S1(=O)CCC(NC(=S)SCc2ccccc2Br)C1 (stereo not drawn) | active: 69.2%
67 | CC[C@@]1(c2ccccc2OC)ON(c2ccccc2C(F)(F)F)C1=O | inconclusive: 49.3%
68 | Cc1ccccc1-c1ccc([C@H]2[C@@H](CO)N3CCCCN(S(=O)(=O)c4ccc(F)cc4)C[C@@H]23)cc1 | inconclusive: 37.7%
69 | O=C(NC(c1ccc(Cl)cc1)c1c(O)ccc2ccccc12)c1ccccc1 (stereo not drawn) | inconclusive: 47.4%
70 | COc1cc(OC)cc(-c2nnc(SCc3ccc(C(=O)O)cc3)o2)c1 | inactive: -3.27%
71 | OC[C@H]1[C@@H](c2ccc(-c3ccc(F)cc3)cc2)[C@@H]2CN(Cc3ccccn3)CCCCN12 | inconclusive: 53.5%
72 | COc1ccc2cc(C(=O)CS(=O)(=O)c3ccccc3)c(=O)oc2c1 | inactive: 9.67%
73 | O=C(Nc1ccc(N2CCN(C(=O)c3ccc(Cl)cc3)CC2)cc1)c1cc2ccccc2o1 | inconclusive: 54.9%
74 | CCOc1cccc(C(=O)NC(=S)Nc2ccc3c(c2)OCCO3)c1 | inactive: -73.2%
75 | CC1C/C(=C\c2cccnc2)C(=O)/C(=C/c2cccnc2)C1 (stereo not drawn) | active: 85.5%
76 | CC(C)(C)C(=O)/C(=C/c1cccc([N+](=O)[O-])c1)n1cncn1 | active: 58.5%
77 | c1ccc(Nc2nc(NCC3CCCO3)c3ccccc3n2)cc1 (stereo not drawn) | inconclusive: 31.4%
78 | Cc1ccc(C(=O)n2nc(-n3cccc3)c3c(C)cc(C)nc32)cc1 | inconclusive: 27.6%
